Measurements: EPA's CvTdb concentration-time database
The source gives many values for each of these; only a part stands here.

Assays:
Test in all cases: concentration in plasma after dosing
Rat [1] = conditions: 0.5 h; dosed: Fluorotelomer alcohol 8+2; 24 mg/kg; oral; Male; Harlan Sprague Dawley
Rat [2] = conditions: dosed: Fluorotelomer alcohol 8+2, 40 mg/kg, oral, Female, Harlan Sprague Dawley
Rat [3] = tested on: Rat
Rat [4] = conditions: dosed: Fluorotelomer alcohol 8+2, 160 mg/kg, oral, Female, Harlan Sprague Dawley
Rat [5] = conditions: 1 h; dosed: Perfluorooctanoic acid; 12 mg/kg; oral; Male; Harlan Sprague Dawley
Rat [6] = conditions: 192 h; dosed: Perfluorooctanoic acid; 80 mg/kg; oral; Female; Harlan Sprague Dawley
Rat [7] = conditions: dosed: Fluorotelomer alcohol 8+2, 160 mg/kg, oral, Female, Harlan Sprague Dawley; remark: listed apart in the source
Rat [8] = conditions: 24 h; dosed: Perfluorooctanoic acid; 80 mg/kg; oral; Female; Harlan Sprague Dawley
Rat [9] = conditions: dosed: Fluorotelomer alcohol 8+2, 24 mg/kg, oral, Male, Harlan Sprague Dawley
Rat [10] = conditions: dosed: Perfluorooctanoic acid, 40 mg/kg, iv, Male, F344
Rat [11] = conditions: dosed: Perfluorooctanoic acid, 48 mg/kg, oral, Male, Harlan Sprague Dawley
Rat [12] = conditions: dosed: Perfluorooctanoic acid, 320 mg/kg, oral, Female, Harlan Sprague Dawley

O=C(O)C(F)(F)C(F)(F)C(F)(F)C(F)(F)C(F)(F)C(F)(F)C(F)(F)F [Perfluorooctanoic acid]
Conditions | concentration in plasma [ng/mL]
Rat [1] | 99.5
Rat [5] | 46600
Rat [6] | 1170
Rat [8] | 8260

Conditions | concentration in plasma [ng/mL]
Rat [2], 1 h | 743
Rat [2], 24 h | 58.7
Rat [4], 0.25 h | 68.5
Rat [4], 6 h | 3020
Rat [7], 1 h | 1830
Rat [7], 24 h | 603
Rat [9], 0.25 h | 23.4
Rat [9], 24 h | 1100
Rat [10], 0.5 h | 220000
Rat [10], 24 h | 1640
Rat [11], 0.25 h | 14100
Rat [11], 6 h | 272000
Rat [11], 528 h | 41400
Rat [12], 6 h | 335000
Rat [12], 48 h | 161000

concentration in plasma [ng/mL], Rat [3], dosed: Perfluorooctanoic acid
Conditions | Female | Male
0.25 h, 6 mg/kg, iv, F344 | – | 51000
0.25 h, 6 mg/kg, oral, Harlan Sprague Dawley | – | 15000
0.25 h, 12 mg/kg, oral, Harlan Sprague Dawley | – | 19600
0.25 h, 40 mg/kg, iv, F344 | – | 257000
0.25 h, 40 mg/kg, oral, Harlan Sprague Dawley | – | 62500
0.25 h, 48 mg/kg, oral, Harlan Sprague Dawley | – | 46100
0.25 h, 80 mg/kg, oral, Harlan Sprague Dawley | 106000 | –
0.25 h, 320 mg/kg, oral, Harlan Sprague Dawley | 194000 | –
0.5 h, 6 mg/kg, iv, F344 | – | 47300
1 h, 6 mg/kg, iv, F344 | – | 48700
1 h, 6 mg/kg, oral, Harlan Sprague Dawley | – | 18600
1 h, 12 mg/kg, oral, Harlan Sprague Dawley | – | 54400
1 h, 40 mg/kg, iv, F344 | – | 137000
1 h, 40 mg/kg, oral, Harlan Sprague Dawley | – | 108000
1 h, 48 mg/kg, oral, Harlan Sprague Dawley | – | 97900
1 h, 80 mg/kg, oral, Harlan Sprague Dawley | 216000 | –
1 h, 320 mg/kg, oral, Harlan Sprague Dawley | 387000 | –
3 h, 6 mg/kg, iv, F344 | – | 49700
3 h, 6 mg/kg, oral, Harlan Sprague Dawley | – | 35300
3 h, 12 mg/kg, oral, Harlan Sprague Dawley | – | 75700
3 h, 40 mg/kg, iv, F344 | – | 110000
3 h, 40 mg/kg, oral, Harlan Sprague Dawley | – | 114000
3 h, 48 mg/kg, oral, Harlan Sprague Dawley | – | 229000
3 h, 80 mg/kg, oral, Harlan Sprague Dawley | 60200 | –
3 h, 320 mg/kg, oral, Harlan Sprague Dawley | 382000 | –
5 min, 6 mg/kg, iv, F344 | – | 55600
5 min, 40 mg/kg, iv, F344 | 331000 | 350000
5 min, 40 mg/kg, iv, Harlan Sprague Dawley | 362000 | –
6 h, 6 mg/kg, iv, F344 | – | 57600
6 h, 6 mg/kg, oral, Harlan Sprague Dawley | – | 39200
6 h, 12 mg/kg, oral, Harlan Sprague Dawley | – | 67300
6 h, 40 mg/kg, iv, F344 | – | 66100
6 h, 40 mg/kg, oral, Harlan Sprague Dawley | – | 91600
6 h, 48 mg/kg, oral, Harlan Sprague Dawley | – | 273000
6 h, 80 mg/kg, oral, Harlan Sprague Dawley | 213000 | –
6 h, 320 mg/kg, oral, Harlan Sprague Dawley | 304000 | –
9 h, 40 mg/kg, oral, Harlan Sprague Dawley | – | 110000
9 h, 80 mg/kg, oral, Harlan Sprague Dawley | 172000 | –
9 h, 320 mg/kg, oral, Harlan Sprague Dawley | 400000 | –
12 h, 6 mg/kg, iv, F344 | – | 41100
12 h, 6 mg/kg, oral, Harlan Sprague Dawley | – | 46000
12 h, 12 mg/kg, oral, Harlan Sprague Dawley | – | 90300
12 h, 40 mg/kg, iv, F344 | – | 12300
12 h, 40 mg/kg, oral, Harlan Sprague Dawley | – | 28600
12 h, 48 mg/kg, oral, Harlan Sprague Dawley | – | 296000
12 h, 80 mg/kg, oral, Harlan Sprague Dawley | 82500 | –
12 h, 320 mg/kg, oral, Harlan Sprague Dawley | 260000 | –
24 h, 6 mg/kg, iv, F344 | – | 44600
24 h, 6 mg/kg, oral, Harlan Sprague Dawley | – | 39800
24 h, 12 mg/kg, oral, Harlan Sprague Dawley | – | 80400
24 h, 40 mg/kg, iv, F344 | – | 986
24 h, 40 mg/kg, oral, Harlan Sprague Dawley | – | 2030
24 h, 48 mg/kg, oral, Harlan Sprague Dawley | – | 255000
24 h, 80 mg/kg, oral, Harlan Sprague Dawley | 9430 | –
24 h, 320 mg/kg, oral, Harlan Sprague Dawley | 397000 | –
48 h, 40 mg/kg, iv, F344 | – | 319
48 h, 40 mg/kg, oral, Harlan Sprague Dawley | – | 86
48 h, 80 mg/kg, oral, Harlan Sprague Dawley | 383 | –
48 h, 320 mg/kg, oral, Harlan Sprague Dawley | 372000 | –
96 h, 40 mg/kg, oral, Harlan Sprague Dawley | – | 50.6
96 h, 80 mg/kg, oral, Harlan Sprague Dawley | 166 | –
96 h, 320 mg/kg, oral, Harlan Sprague Dawley | 2820 | –
192 h, 6 mg/kg, iv, F344 | – | 14200
192 h, 6 mg/kg, oral, Harlan Sprague Dawley | – | 21700
192 h, 12 mg/kg, oral, Harlan Sprague Dawley | – | 31600
192 h, 48 mg/kg, oral, Harlan Sprague Dawley | – | 75700
192 h, 80 mg/kg, oral, Harlan Sprague Dawley | 2060 | –
528 h, 6 mg/kg, iv, F344 | – | 3510
528 h, 6 mg/kg, oral, Harlan Sprague Dawley | – | 4540
528 h, 12 mg/kg, oral, Harlan Sprague Dawley | – | 8760
528 h, 12 mg/kg, oral, Harlan Sprague Dawley - this seems too small | – | 22300
528 h, 48 mg/kg, oral, Harlan Sprague Dawley | – | 31500
864 h, 6 mg/kg, iv, F344 | – | 1640
864 h, 6 mg/kg, oral, Harlan Sprague Dawley | – | 3490
864 h, 12 mg/kg, oral, Harlan Sprague Dawley | – | 9760
864 h, 48 mg/kg, oral, Harlan Sprague Dawley | – | 18000
1200 h, 6 mg/kg, oral, Harlan Sprague Dawley | – | 1070
1200 h, 12 mg/kg, oral, Harlan Sprague Dawley | – | 673
1200 h, 48 mg/kg, oral, Harlan Sprague Dawley | – | 7840

concentration in plasma [ng/mL], Rat [3], oral
Conditions | Harlan Sprague Dawley | Harlan Sprague Dawley - this seems too small
0.25 h, dosed: Fluorotelomer alcohol 8+2, 24 mg/kg, Male | 14.8 | –
0.25 h, dosed: Fluorotelomer alcohol 8+2, 40 mg/kg, Female | 122 | –
0.25 h, dosed: Fluorotelomer alcohol 8+2, 48 mg/kg, Male | 34.7 | –
0.25 h, dosed: Fluorotelomer alcohol 8+2, 80 mg/kg, Female | 108 | –
0.25 h, dosed: Fluorotelomer alcohol 8+2, 160 mg/kg, Female | 116 | –
0.5 h, dosed: Fluorotelomer alcohol 8+2, 24 mg/kg, Male | 138 | 57.6
0.5 h, dosed: Fluorotelomer alcohol 8+2, 40 mg/kg, Female | 398 | –
0.5 h, dosed: Fluorotelomer alcohol 8+2, 48 mg/kg, Male | 225 | –
0.5 h, dosed: Fluorotelomer alcohol 8+2, 80 mg/kg, Female | 521 | –
0.5 h, dosed: Fluorotelomer alcohol 8+2, 160 mg/kg, Female | 778 | –
0.75 h, dosed: Fluorotelomer alcohol 8+2, 12 mg/kg, Male | 231 | –
0.75 h, dosed: Fluorotelomer alcohol 8+2, 24 mg/kg, Male | 289 | –
0.75 h, dosed: Fluorotelomer alcohol 8+2, 40 mg/kg, Female | 863 | –
0.75 h, dosed: Fluorotelomer alcohol 8+2, 48 mg/kg, Male | 357 | –
0.75 h, dosed: Fluorotelomer alcohol 8+2, 80 mg/kg, Female | 707 | –
0.75 h, dosed: Fluorotelomer alcohol 8+2, 160 mg/kg, Female | 1130 | –
1 h, dosed: Fluorotelomer alcohol 8+2, 12 mg/kg, Male | 233 | –
1 h, dosed: Fluorotelomer alcohol 8+2, 24 mg/kg, Male | 258 | –
1 h, dosed: Fluorotelomer alcohol 8+2, 40 mg/kg, Female | 601 | –
1 h, dosed: Fluorotelomer alcohol 8+2, 48 mg/kg, Male | 568 | –
1 h, dosed: Fluorotelomer alcohol 8+2, 80 mg/kg, Female | 922 | –
1 h, dosed: Fluorotelomer alcohol 8+2, 160 mg/kg, Female | 2220 | –
3 h, dosed: Fluorotelomer alcohol 8+2, 24 mg/kg, Male | 596 | –
3 h, dosed: Fluorotelomer alcohol 8+2, 40 mg/kg, Female | 815 | –
3 h, dosed: Fluorotelomer alcohol 8+2, 48 mg/kg, Male | 1060 | –
3 h, dosed: Fluorotelomer alcohol 8+2, 80 mg/kg, Female | 2020 | –
3 h, dosed: Fluorotelomer alcohol 8+2, 160 mg/kg, Female | 4680 | –
6 h, dosed: Fluorotelomer alcohol 8+2, 24 mg/kg, Male | 543 | –
6 h, dosed: Fluorotelomer alcohol 8+2, 40 mg/kg, Female | 1770 | –
6 h, dosed: Fluorotelomer alcohol 8+2, 48 mg/kg, Male | 3300 | –
6 h, dosed: Fluorotelomer alcohol 8+2, 80 mg/kg, Female | 2390 | –
6 h, dosed: Fluorotelomer alcohol 8+2, 160 mg/kg, Female | 3510 | –
9 h, dosed: Fluorotelomer alcohol 8+2, 24 mg/kg, Male | 1010 | –
9 h, dosed: Fluorotelomer alcohol 8+2, 40 mg/kg, Female | 1150 | –
9 h, dosed: Fluorotelomer alcohol 8+2, 48 mg/kg, Male | 2340 | –
9 h, dosed: Fluorotelomer alcohol 8+2, 80 mg/kg, Female | 1640 | –
9 h, dosed: Fluorotelomer alcohol 8+2, 160 mg/kg, Female | 2560 | –
12 h, dosed: Fluorotelomer alcohol 8+2, 12 mg/kg, Male | 612 | –
12 h, dosed: Fluorotelomer alcohol 8+2, 24 mg/kg, Male | 1000 | –
12 h, dosed: Fluorotelomer alcohol 8+2, 40 mg/kg, Female | 1100 | –
12 h, dosed: Fluorotelomer alcohol 8+2, 48 mg/kg, Male | 2210 | –
12 h, dosed: Fluorotelomer alcohol 8+2, 80 mg/kg, Female | 557 | –
12 h, dosed: Fluorotelomer alcohol 8+2, 160 mg/kg, Female | 2790 | –
24 h, dosed: Fluorotelomer alcohol 8+2, 12 mg/kg, Male | 639 | –
24 h, dosed: Fluorotelomer alcohol 8+2, 24 mg/kg, Male | 1040 | –
24 h, dosed: Fluorotelomer alcohol 8+2, 40 mg/kg, Female | 89.4 | –
24 h, dosed: Fluorotelomer alcohol 8+2, 48 mg/kg, Male | 1920 | –
24 h, dosed: Fluorotelomer alcohol 8+2, 80 mg/kg, Female | 219 | –
24 h, dosed: Fluorotelomer alcohol 8+2, 160 mg/kg, Female | 799 | –
48 h, dosed: Fluorotelomer alcohol 8+2, 24 mg/kg, Male | 924 | –
48 h, dosed: Fluorotelomer alcohol 8+2, 40 mg/kg, Female | 13.6 | –
48 h, dosed: Fluorotelomer alcohol 8+2, 48 mg/kg, Male | 2050 | –
48 h, dosed: Fluorotelomer alcohol 8+2, 80 mg/kg, Female | 30.3 | –
48 h, dosed: Fluorotelomer alcohol 8+2, 160 mg/kg, Female | 171 | –
192 h, dosed: Fluorotelomer alcohol 8+2, 24 mg/kg, Male | 685 | –
192 h, dosed: Fluorotelomer alcohol 8+2, 48 mg/kg, Male | 1330 | –
